{"source": "patent US9605080B2", "about": "“Antibodies against CD73” (BRISTOL-MYERS SQUIBB COMPANY, priority 2014, dated 2017)", "key": {"[1]": {"assay": "Differential scanning calorimetry, thermal stability of CD73 mAbs", "type": "physicochemical", "conditions": "PBS pH 7.1", "method": "The thermal stability of CD73 mAbs were determined using a MicroCal Capillary DSC instrument (GE Healthcare). Antibodies were analyzed at a concentrations of 0.5-0.75 mg/ml in PBS pH 7.1. To stabilize the DSC instrument baseline and obtain a consistent thermal history, multiple scans of buffer alone in both the sample and reference cell were recorded prior to sample analysis. Sample scans contained mAb in the sample cell and PBS pH 7.1 in the reference cell. All scans were run from 10-110° C. at a scan rate of 60°/hr using a 5 minute pre-cycle thermostat period and no post-cycle thermostat period. Data (as shown in Table 15 below) were analyzed using MicroCal Origin Cap DSC analysis software. The appropriate buffer-buffer blank scans were subtracted from the sample-buffer data, and the transition midpoint temperature (Tm) values were determined by fitting the data to a non-2-state model. Tm1, Tm2 and Tm3 are the Tms for different domains in the antibodies."}, "CD73 in Calu6 cells": {"target": "T1, CD73 in Calu6 cells (Homo sapiens, UniProt P21589)", "T1 construct": "Calu6 (CD73 endogenous expressors; human pulmonary adenocarcinoma cell line); endogenous in cells; host or cells: Calu6 (human pulmonary adenocarcinoma)", "T1 sequence (P21589 27-549)": "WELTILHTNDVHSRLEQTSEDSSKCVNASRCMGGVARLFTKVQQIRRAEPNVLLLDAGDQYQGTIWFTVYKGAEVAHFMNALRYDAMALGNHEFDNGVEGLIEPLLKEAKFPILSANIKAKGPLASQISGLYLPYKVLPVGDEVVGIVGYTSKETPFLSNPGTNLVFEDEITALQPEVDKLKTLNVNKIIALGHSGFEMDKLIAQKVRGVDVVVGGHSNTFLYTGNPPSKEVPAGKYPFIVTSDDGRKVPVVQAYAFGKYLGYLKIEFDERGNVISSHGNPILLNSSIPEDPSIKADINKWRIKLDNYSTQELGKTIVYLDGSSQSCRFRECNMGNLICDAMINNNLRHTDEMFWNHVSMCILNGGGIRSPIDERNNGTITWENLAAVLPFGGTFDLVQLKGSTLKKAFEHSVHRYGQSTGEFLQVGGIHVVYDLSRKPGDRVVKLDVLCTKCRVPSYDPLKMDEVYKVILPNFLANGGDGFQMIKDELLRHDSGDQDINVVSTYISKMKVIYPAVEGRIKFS", "assay": "Kinetic high-content internalization study, Calu6 cells", "type": "cell-based", "conditions": "FIGS. 23A-D, several cell lines", "method": "Kinetic internalization studies were performed to assess the rate of internalization. Cells (2,000 cells/well) in 20 μl of complete medium (Gibco RPMI Media 1640 with 10% heat inactivated fetal bovine serum) were plated in 384 BD Falcon plate and grown overnight at 37° C. 5% CO2 and 95% humidity. CD73 antibodies were diluted with PBS buffer containing 0.2% BSA to 10 μg/ml and added 5 μl/well into the cell plate. The cells were incubated with antibodies for a 0-2 hour time course at 37° C., followed by washing once with PBS buffer. The cells were subsequently fixed with formaldehyde (final 4% in PBS) at room temperature for 10 minutes, and then washed once with 30 ul. PBS. […] The plate was incubated at 4° C. for overnight. On the next day, after 3 washes in PBS buffer, Secondary antibody Alexa488-goat anti human with DAPI were added. The cells were stained for 60 minutes at room temperature, after 3 washes, images were acquired using Arrayscan Vti (Cellomics, Pittsburgh, Pa.)."}}}
{"molecule": "5F8: human anti-CD73 mAb, IgG1za, predominant light chain VK1 (antibody, Synthetic: 5F8 (full length heavy chain); Synthetic: 5F8 (full length light chain 1), human anti-CD73 mAb, IgG1za, predominant light chain VK1) heavy: EVQLVESGGGLVQPGGSLRLSCAASGFTFSSYWMHWVRQAPGKGLVWVSRIISDGSSTGYADSVKGRFTISRDNAKNTLYLQMNSLRAEDTAVYYCAREFSSGWYFDYWGQGTLVTVSS[sequence of human IgG1 constant region omitted] light: AIQLTQSPSSLSASVGDRVTITCRASQGISSALAWYQQKPGKAPKLLIYDASSLESGVPSRFSGSGSGTDFTLTISSLQPEDFATYYCQQFSSYPRTFGQGTKVEIKRTVAAPSVFIFPPSDEQLKSGTASVVCLLNNFYPREAKVQWKVDNALQSGNSQESVTEQDSKDSTYSLSSTLTLSKADYEKHKVYACEVTHQGLSSPVTKSFNRGEC", "values": [{"measurement": "DSC Tm1 (oC)", "setting": "[1]", "result": 68.7, "unit": "oC"}, {"measurement": "DSC Tm2 (oC)", "setting": "[1]", "result": 82.7, "unit": "oC"}, {"measurement": "DSC Tonset (oC)", "setting": "[1]", "result": 59.0, "unit": "oC"}, {"measurement": "internalization", "setting": "CD73 in Calu6 cells", "result": "did not internalize significantly"}]}
